# Experimental data: PMC11995724, “Antibiotic target discovery by integrated phenotypic and activity-based profiling of electrophilic fragments” (Cell chemical biology, 2025)
# Out of some 3,200 compounds screened, about 75 (2%) showed an effect of 50% or more. The list shows a part of the results.
# System: T1, S. aureus MSSA476
# T1 construct: MSSA476
# Set-up: species or system S. aureus MSSA476 (TSB) or V. cholerae SAD30 (LB); 384-well bacterial growth screen at 25 uM, OD600 relative to DMSO control
# Settings: relative growth, OD600, TSB; 25 µM; inhibitor
row,SMILES,% of control remaining [%]
1,"CC(Cl)C(=O)NCc1cccs1 (stereo not drawn) [4-P11, 2-chloro-N-[(thiophen-2-yl)methyl]propanamide]",104.812
2,"C=CC(=O)NCCC1CCCS1(=O)=O (stereo not drawn) [3-C12, N-[2-(1,1-dioxo-1lambda6-thiolan-2-yl)ethyl]prop-2-enamide]",115.281
3,"COc1cc(C=C(C#N)C(=O)NC(C)C)sn1 [9-N12, 2-cyano-3-(3-methoxy-1,2-thiazol-5-yl)-N-(propan-2-yl)prop-2-enamide]",119.85
4,"C=CC(=O)N1CCN(Cc2ccon2)CC1 [1-N20, 1-{4-[(1,2-oxazol-3-yl)methyl]piperazin-1-yl}prop-2-en-1-one]",112.176
5,"C=CC(=O)N1CCC(C(=O)NCC(C)(C)C=C)CC1 [2-G04, N-(2,2-dimethylbut-3-en-1-yl)-1-(prop-2-enoyl)piperidine-4-carboxamide]",95.0392
6,"CC(Cl)C(=O)NCC1CN(c2ccc(Cl)cc2)CCO1 (stereo not drawn) [6-F07, 2-chloro-N-{[4-(4-chlorophenyl)morpholin-2-yl]methyl}propanamide]",89.8049
7,"CC1CCCN(C(=O)C(NC(=O)CCl)c2cnn(C)c2)C1 (stereo not drawn) [6-H05, 2-chloro-N-[1-(1-methyl-1H-pyrazol-4-yl)-2-(3-methylpiperidin-1-yl)-2-oxoethyl]acetamide]",93.2195
8,"Cc1cc(C)cc(-n2c(C)cc(C(=O)CCl)c2C)c1 [10-E04, 2-chloro-1-[1-(3,5-dimethylphenyl)-2,5-dimethyl-1H-pyrrol-3-yl]ethan-1-one]",128.438
9,"N#CC(=Cc1ccc(O)cc1)C(=O)NCCc1c(F)cccc1F [9-I16, 2-cyano-N-[2-(2,6-difluorophenyl)ethyl]-3-(4-hydroxyphenyl)prop-2-enamide]",116.854
10,"O=C(CCl)N(Cc1ccccc1)c1nc2c(s1)CCCC2 [4-C17, N-benzyl-2-chloro-N-(4,5,6,7-tetrahydro-1,3-benzothiazol-2-yl)acetamide]",138.352
11,"CC(Cl)C(=O)N(C)Cc1cc(C(C)(C)C)[nH]n1 (stereo not drawn) [7-B21, N-[(5-tert-butyl-1H-pyrazol-3-yl)methyl]-2-chloro-N-methylpropanamide]",99.529
12,"Cc1ccsc1C=C(C#N)C(=O)N1CCN(c2ccccc2)CC1 [8-B13, 3-(3-methylthiophen-2-yl)-2-(4-phenylpiperazine-1-carbonyl)prop-2-enenitrile]",114.855
13,"C=CC(=O)NCCc1nc(C)no1 [3-N19, N-[2-(3-methyl-1,2,4-oxadiazol-5-yl)ethyl]prop-2-enamide]",119.112
14,"CCn1ccc(CN(C)C(=O)CCl)n1 [5-K06, 2-chloro-N-[(1-ethyl-1H-pyrazol-3-yl)methyl]-N-methylacetamide]",77.5956
15,"COc1ccc(Cl)cc1NC(=O)C(C)Cl (stereo not drawn) [6-G16, 2-chloro-N-(5-chloro-2-methoxyphenyl)propanamide]",98.6829
16,"COc1ccc2cc(C=C(C#N)C(=O)NCc3ccccc3)ccc2c1 [9-D07, N-benzyl-2-cyano-3-(6-methoxynaphthalen-2-yl)prop-2-enamide]",106.367
17,"CCn1cc(CN(C(=O)CCl)[C@H]2CC[C@H](C)CC2)cn1 [5-G16, 2-chloro-N-[(1-ethyl-1H-pyrazol-4-yl)methyl]-N-[(1r,4r)-4-methylcyclohexyl]acetamide]",96.5392
18,"C=CC(=O)NCCc1csc(C)n1 [1-D13, N-[2-(2-methyl-1,3-thiazol-4-yl)ethyl]prop-2-enamide]",90.022
19,"C=CC(=O)Nc1cccc(-c2nnnn2C(C)C)c1 [1-A16, N-{3-[1-(propan-2-yl)-1H-1,2,3,4-tetrazol-5-yl]phenyl}prop-2-enamide]",104.44
20,"CC(Cl)C(=O)N(C)C1CCN(c2ccccc2Cl)C1=O (stereo not drawn) [7-C16, 2-chloro-N-[1-(2-chlorophenyl)-2-oxopyrrolidin-3-yl]-N-methylpropanamide]",120.879
21,"CC(Cl)C(=O)NC1CCCc2c1cnn2Cc1ccccc1 (stereo not drawn) [7-G13, N-(1-benzyl-4,5,6,7-tetrahydro-1H-indazol-4-yl)-2-chloropropanamide]",81.0047
22,"COC(=O)c1c(NC(=O)CCl)sc2c1CCC(C(C)(C)C)C2 (stereo not drawn) [4-J19, methyl 6-tert-butyl-2-(2-chloroacetamido)-4,5,6,7-tetrahydro-1-benzothiophene-3-carboxylate]",117.77
23,"C=CC(=O)N1CCS(=O)(=O)N2CCCC12 (stereo not drawn) [3-H18, 1-(prop-2-enoyl)-hexahydro-1H-4lambda6-pyrrolo[1,2-b][1,2,4]thiadiazine-4,4-dione]",121.898

row,SMILES,% of control remaining [%]
1,"Cc1cc(C(=O)CCl)c(C)n1CC(N)=O [10-O16, 2-[3-(2-chloroacetyl)-2,5-dimethyl-1H-pyrrol-1-yl]acetamide]",129.688
2,"C=CC(=O)NC1CCOC1C (stereo not drawn) [1-F06, N-(2-methyloxolan-3-yl)prop-2-enamide]",89.6703
3,"Cc1ccc(C=C(C#N)C(=O)Nc2ccc(C(=O)N(C)C)cc2)o1 [9-P14, 4-[2-cyano-3-(5-methylfuran-2-yl)prop-2-enamido]-N,N-dimethylbenzamide]",101.573
4,"Cc1cccc(C)c1NC(=O)C(C#N)=Cc1ccsc1 [8-I07, 2-cyano-N-(2,6-dimethylphenyl)-3-(thiophen-3-yl)prop-2-enamide]",121.494
5,"Cc1nsc(N2CCN(C(=O)C(C)Cl)CC2)c1C#N (stereo not drawn) [6-H15, 5-[4-(2-chloropropanoyl)piperazin-1-yl]-3-methyl-1,2-thiazole-4-carbonitrile]",103.122
6,"COc1cc(C=C(C#N)C(=O)Nc2cccc(C)c2)c2c(c1)CC(C)O2 (stereo not drawn) [8-N22, 2-cyano-3-(5-methoxy-2-methyl-2,3-dihydro-1-benzofuran-7-yl)-N-(3-methylphenyl)prop-2-enamide]",121.162
7,"Cc1cc(C)c(NC(=O)C(C#N)=Cc2ccc(C(C)(C)C)cc2)c(C)c1 [8-I13, 3-(4-tert-butylphenyl)-2-cyano-N-(2,4,6-trimethylphenyl)prop-2-enamide]",90.9544
8,"C=CC(=O)N(Cc1cn(C)nc1-c1ccc(F)cc1)C1CC(C)C1 (stereo not drawn) [1-P09, N-{[3-(4-fluorophenyl)-1-methyl-1H-pyrazol-4-yl]methyl}-N-(3-methylcyclobutyl)prop-2-enamide]",106.901
9,"O=C(CCl)Nc1ncc(Cc2ccccc2Cl)s1 [4-P07, 2-chloro-N-{5-[(2-chlorophenyl)methyl]-1,3-thiazol-2-yl}acetamide]",107.099
10,"C=CC(=O)NC(C)c1cn(-c2ccccc2)nn1 (stereo not drawn) [1-N04, N-[1-(1-phenyl-1H-1,2,3-triazol-4-yl)ethyl]prop-2-enamide]",95.6484
11,"N#CC(=Cc1cc(F)ccc1F)C(=O)NC1CCCC1 [8-I12, 2-cyano-N-cyclopentyl-3-(2,5-difluorophenyl)prop-2-enamide]",78.3402
12,"C=CC(=O)N1CCC(c2nc3c(s2)CCC3)CC1 [3-I22, 1-(4-{4H,5H,6H-cyclopenta[d][1,3]thiazol-2-yl}piperidin-1-yl)prop-2-en-1-one]",90.2046
13,"O=C(CCl)NSc1ccc([N+](=O)[O-])cc1 [4-P13, 2-chloro-N-[(4-nitrophenyl)sulfanyl]acetamide]",1.906
14,"C=CC(=O)NCc1ccccc1S(=O)(=O)NC [1-N03, N-{[2-(methylsulfamoyl)phenyl]methyl}prop-2-enamide]",86.1538
15,"Cc1ccc(N(CCC#N)C(=O)CCl)cc1 [4-M15, 2-chloro-N-(2-cyanoethyl)-N-(4-methylphenyl)acetamide]",113.578
16,"Cc1ccc(N2CCCC2CNC(=O)CCl)cc1 (stereo not drawn) [7-H14, 2-chloro-N-{[1-(4-methylphenyl)pyrrolidin-2-yl]methyl}acetamide]",83.2025
17,"Cc1nn(C)c(C)c1C=C(C#N)C(=O)Nc1cccc(Cl)c1C [9-M20, N-(3-chloro-2-methylphenyl)-2-cyano-3-(1,3,5-trimethyl-1H-pyrazol-4-yl)prop-2-enamide]",103.371
18,"COc1ccc(C=C(C#N)C(=O)Nc2ccccc2[N+](=O)[O-])cc1 [8-G03, 2-cyano-3-(4-methoxyphenyl)-N-(2-nitrophenyl)prop-2-enamide]",119.502
19,"C=CC(=O)Nc1ncccn1 [1-M12, N-(pyrimidin-2-yl)prop-2-enamide]",75.2527
20,"O=C(CCl)Nc1cc(S(=O)(=O)N2CCCC2)ccc1Cl [6-G14, 2-chloro-N-[2-chloro-5-(pyrrolidine-1-sulfonyl)phenyl]acetamide]",93.2195
21,"C=CC(=O)N1CCCCC1 [1-C12, 1-(piperidin-1-yl)prop-2-en-1-one]",98.4615
22,"C=CC(=O)Nc1cnn(CC(F)(F)F)c1 [1-A11, N-[1-(2,2,2-trifluoroethyl)-1H-pyrazol-4-yl]prop-2-enamide]",131.516
